Results taken from paper PMC7997005, “Dynamic interplay between the co-opted Fis1 mitochondrial fission protein and membrane contact site proteins in supporting tombusvirus replication” (PLoS Pathogens, 2021).
These are yes or no findings as the source states them, for the method shown. Binding seen in cells or lysates may run through a third protein. Some results given as binding are weak or reduced against the parent protein; the word gives no strength. Where a sequence is shown, tags or fusion partners need not be part of it.

How the values were obtained:
[1] = target: T1, cYFP-AtFis1A (Arabidopsis thaliana) (UniProt Q9M1J1); assay: split reporter; BiFC in mock-infected (noninfected) N. benthamiana leaves, in the absence of TBSV replication
T1 sequence: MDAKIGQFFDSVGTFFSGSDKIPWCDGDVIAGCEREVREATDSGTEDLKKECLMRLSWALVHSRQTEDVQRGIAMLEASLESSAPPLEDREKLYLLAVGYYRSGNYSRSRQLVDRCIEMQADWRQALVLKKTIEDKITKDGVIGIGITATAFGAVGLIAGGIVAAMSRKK

[2] = target: T2, cYFP-AtFis1B (Arabidopsis thaliana) (UniProt Q94CK3); assay: as above
T2 sequence: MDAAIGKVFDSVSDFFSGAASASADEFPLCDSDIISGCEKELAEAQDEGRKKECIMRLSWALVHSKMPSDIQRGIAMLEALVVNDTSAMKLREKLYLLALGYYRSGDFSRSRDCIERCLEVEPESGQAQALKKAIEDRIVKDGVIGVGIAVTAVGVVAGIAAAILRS

[3] = target: T3, TBSV p33-cYFP replication protein (tomato bushy stunt virus (TBSV)) (UniProt P15962); assay: split reporter; BiFC (nYFP/cYFP fusions, 35S promoter, co-agroinfiltration) in N. benthamiana leaves infected with TBSV or CIRV; confocal microscopy; includes TRV-MBP control plants
T3 sequence: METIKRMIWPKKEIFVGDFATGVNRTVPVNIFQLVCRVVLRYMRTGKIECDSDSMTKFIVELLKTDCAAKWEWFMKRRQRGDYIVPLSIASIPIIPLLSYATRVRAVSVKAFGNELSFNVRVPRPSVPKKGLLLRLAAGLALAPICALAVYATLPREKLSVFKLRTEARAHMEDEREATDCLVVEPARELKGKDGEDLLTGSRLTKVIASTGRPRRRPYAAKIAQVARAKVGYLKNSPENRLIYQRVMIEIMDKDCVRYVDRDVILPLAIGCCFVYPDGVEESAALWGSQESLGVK

[4] = target: T2, cYFP-AtFis1B (Arabidopsis thaliana); assay: as above
[5] = target: Flag-AtFis1A (Arabidopsis thaliana) (UniProt Q9M1J1); assay: co-IP; Flag-affinity purification of Flag-AtFis1A or Flag-AtFis1B from N. benthamiana infected with TBSV and expressing p33-HA; co-purified p33-HA detected with anti-HA antibody
[6] = target: T4, Flag-AtFis1B (Arabidopsis thaliana) (UniProt Q94CK3); assay: as above
T4 sequence: T2 sequence

[7] = target: T3, TBSV p33-cYFP replication protein (tomato bushy stunt virus (TBSV)); assay: condition: only in Fis1-silenced (VIGS) plant cells; split reporter; BiFC in TBSV-infected N. benthamiana leaves with VIGS-based silencing of Fis1 (TRV-NbFis1)
[8] = target: T1, cYFP-AtFis1A (Arabidopsis thaliana); assay: split reporter; BiFC (nYFP/cYFP fusions, 35S promoter, co-agroinfiltration) in N. benthamiana leaves infected with TBSV or CIRV; confocal microscopy; includes TRV-MBP control plants

B1: nYFP-AtVAP27-1 (protein, UniProt Q8VZ95 1-256)
chain: MSNIDLIGMSNRDLIGMSNSELLTVEPLDLQFPFELKKQISCSLYLTNKTDNNVAFKVKTTNPKKYCVRPNTGVVLPRSTCEVLVTMQAQKEAPSDMQCKDKFLLQGVIASPGVTAKEVTPEMFSKEAGHRVEETKLRVTYVAPPRPPSPVHEGSEEGSSPRASVSDNGHGSEFSFERFIVDNKAGHQENTSEARALITKLTEEKQSAIQLNNRLQRELDQLRRESKKSQSGGIPFMYVLLVGLIGLILGYIMKRT
binding [1]: binds | binding [2]: binds | binding [3]: binds | binding [4]: binds

B2: HA-tagged TBSV p33 replication protein (protein, UniProt P15962 1-296)
chain: T3 sequence
binding [5]: binds | binding [6]: binds

B3: nYFP-AtORP3A (protein, UniProt Q9LZM1 1-453)
chain: MASNDPKNGGGFFASLASSITNFGSAMSKSVNGLMGYEGLEVINPEGSTDDAEEEAGRGRWKQEERDGYWKMMQKYIGSDVTSMVTLPVIIFEPMTMLQKMAELMEYSYLLDMADKTEDPYMRMVYASSWAISVYYAYQRTWKPFNPILGETYEMTNHNGINFIAEQVCHHPPMSAGHAENEHFAYDCTSKLKTKFLGNSIDVYPVGRTRVTLKRDGVVLDLVPPLTKVHNLIFGRTWVDSPGEMVMTNLTTGDKVVLYFQPCGWFGSGRYEVDGYVYNSAEEPKMLMTGKWNESLSYQPCDAEGEPLPGTELKEVWKVAEAPKNDKYQYTHFAHKINSFDTAPKKLLSSDSRLRPDRYALEMGDMSKSGFEKSSLEDRQRAEKKSREEKGQKFAPKWFDETEEVTPTPWGDLEVYQFNGKYSVHRATAENSEDTTDVKLTQFNPWQFQDLSA
binding [2]: binds | binding [7]: no binding | binding [3]: binds | binding [8]: binds | binding [4]: binds

B4: nYFP-AtPVA12 VAP protein (protein, UniProt Q9SHC8 1-239)
chain: MSNELLTIDPVDLQFPFELKKQISCSLYLGNKTDNYVAFKVKTTNPKKYCVRPNTGVVHPRSSSEVLVTMQAQKEAPADLQCKDKFLLQCVVASPGATPKDVTHEMFSKEAGHRVEETKLRVVYVAPPRPPSPVREGSEEGSSPRASVSDNGNASDFTAAPRFSADRVDAQDNSSEARALVTKLTEEKNSAVQLNNRLQQELDQLRRESKRSKSGGIPFMYVLLVGLIGLILGYIMKRT
binding [1]: binds | binding [2]: binds | binding [3]: binds | binding [4]: binds
